From PubChem BioAssay AID588342 (National Center for Advancing Translational Sciences (NCATS), 2011)
Screen size: about 360,000 compounds; about 25,000 (6.9%) were called active. Inconclusive means that the source gave no clear call. Such entries were picked first, then a sample of the others. Calls follow the shape of the dose curve; as a rule, active = well fitted inhibition curve with a large enough effect; inconclusive = small, poorly fitted or top-dose-only effect; inactive = flat fitted curve, though single readings scatter. Potencies beside an inconclusive call are fits to weak or partial responses and may not hold up.

What follows are molecules tested against Luciferin 4-monooxygenase (Photinus pyralis) (UniProt P08659) (assay: qHTS profiling assay for firefly luciferase inhibitor/activator using purifed enzyme and Km concentrations of substrates (counterscreen for miR-21 project)). Details: purified FLuc, luminescence inhibition; series mostly up to 57.5 µM.
Procedure, shortened: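 Purified P. pyralis luciferase (10nM final) with 10uM D-luciferin and 10uM ATP (Km levels) in 50mM Tris acetate pH 7.5, 10mM Mg acetate, 0.01% Tween-20, 0.05% BSA; qHTS 6-point titration, ~60 µM downward; luminescence read.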
Also: nearly all actives have a fitted effect of over 55% in size.
Potency is read from the fitted curve at half-maximal effect; tags tell the direction and shape of the fitted curve.

UniProt P08659, sequence (P08659 whole entry, looked up): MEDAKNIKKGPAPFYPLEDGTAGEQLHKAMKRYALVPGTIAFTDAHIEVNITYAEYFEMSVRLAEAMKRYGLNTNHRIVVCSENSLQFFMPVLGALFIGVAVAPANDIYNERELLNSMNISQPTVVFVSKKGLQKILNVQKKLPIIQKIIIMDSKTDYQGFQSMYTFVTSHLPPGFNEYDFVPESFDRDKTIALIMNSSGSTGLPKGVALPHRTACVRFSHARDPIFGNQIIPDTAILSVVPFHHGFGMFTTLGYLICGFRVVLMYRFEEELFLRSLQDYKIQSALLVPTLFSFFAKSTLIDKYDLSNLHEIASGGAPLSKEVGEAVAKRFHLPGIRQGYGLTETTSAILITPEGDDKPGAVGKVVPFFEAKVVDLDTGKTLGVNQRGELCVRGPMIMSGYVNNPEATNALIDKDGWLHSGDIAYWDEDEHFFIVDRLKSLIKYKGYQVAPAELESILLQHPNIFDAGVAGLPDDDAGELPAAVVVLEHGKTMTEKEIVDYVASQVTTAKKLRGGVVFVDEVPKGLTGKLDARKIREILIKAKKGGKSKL

Row | Structure (SMILES) | Potency
1 | CCCCN(C)CCCNC(=O)Cn1ncc2c3ccccc3n(Cc3cccc(Cl)c3)c2c1=O | inactive
2 | CCCN(CCC)C(=O)CSc1nc2c(sc(=S)n2-c2ccc(OCC)cc2)c(=O)[nH]1 | inconclusive: 19 µM [inhibitor, partial curve]
3 | COc1ccc(Cl)cc1C(=O)Nc1ccc(N(C)C(C)=O)cc1 | inconclusive: 21.3 µM [inhibitor, single point]
4 | Cc1cc(S(=O)(=O)NCc2ccccc2)ccc1OCC(=O)NCc1ccncc1 | active: 15.1 µM
5 | CCOc1ccc2nc(NC(=O)Cc3cccs3)sc2c1 | active: 12 µM
6 | CCC(=O)Nc1ccc(C(=O)N/N=C/c2ccccc2[N+](=O)[O-])cc1 | inactive
7 | CC(=O)c1ccc(N2CCc3ccccc3C2)c([N+](=O)[O-])c1 | inconclusive: 23.9 µM [inhibitor, partial curve, poor fit]
8 | CC(=O)OCC(=O)Nc1ccc(SC(F)F)cc1 | inconclusive: 37.9 µM [inhibitor, single point]
9 | CCOC(=O)C1(Cc2ccccc2)CCN(Cc2ccon2)CC1 | inconclusive: 37.9 µM [inhibitor, partial curve, poor fit]
10 | Cc1ccc(Cl)cc1-n1c(CCC(=O)O)ccc1-c1cccs1 | inconclusive: 12 µM [inhibitor, partial curve]
11 | NC(=O)CCS(=O)(=O)CCN1CCN(S(=O)(=O)c2ccc3c(c2)CCC3)CC1 | inactive
12 | Cc1sc2ncnc(N3CCC(C(=O)Nc4nnc(SCc5ccccc5F)s4)CC3)c2c1C | inactive
13 | Cc1ccc(NC(=S)c2ccncc2)cc1 | inconclusive: 37.9 µM [inhibitor, partial curve, poor fit]
14 | CCOC(=O)N/N=C\c1cccc(OC)c1OC/C=C/c1ccccc1 | active: 9.53 µM
15 | O=C(CCNc1ccc(Cl)cc1)c1cccs1 | inconclusive: 19 µM [inhibitor, partial curve]
16 | c1coc(-c2ccnc(-n3cccc3)n2)c1 | inconclusive: 21.3 µM [inhibitor, single point]
17 | Cc1c(CC(=O)O)c(=O)oc2c(C)c(OCc3ccc(F)cc3F)ccc12 | inconclusive: 37.9 µM [inhibitor, single point]
18 | COc1ccc(C2C(C(=O)c3ccccc3)N3c4ccccc4C=CC3C2[N+](=O)[O-])cc1 (stereo not given) | inconclusive: 37.9 µM [inhibitor, partial curve, poor fit]
19 | CCOc1c(Nc2ccccc2O)c(=O)c1=O | inactive
20 | CCOc1ccc(CNC(=O)c2ccc3c(c2)sc2nc(-c4ccccc4)cn23)cc1 | inactive
21 | CN(C)c1cccc(C(=O)NCC(c2ccco2)N(C)C)c1 (stereo not given) | inconclusive: 37.9 µM [inhibitor, single point]
22 | CC(C)(C)NC(=O)COc1ccc(CNc2ccc3[nH]c(=O)[nH]c3c2)cc1 | inconclusive: 23.9 µM [inhibitor, partial curve, poor fit]
23 | Cc1cc(C)nc(N/N=C/c2c(C)oc3ccccc23)n1 | inconclusive: 19 µM [inhibitor, partial curve, poor fit]
24 | N#Cc1ccccc1COC(=O)c1ccc2c(c1)OCO2 | inconclusive: 14.1 µM [inhibitor, partial curve, poor fit]

Row | Structure (SMILES) | Potency
25 | CCN(c1ccc(NC(=O)COC(=O)c2ccc(C)s2)cc1)C(C)C | inconclusive: 23.9 µM [inhibitor, partial curve, poor fit]
26 | O=C(Nc1ccc2c(c1)OCCO2)NC1CCCCC1 | active: 3.79 µM
27 | COc1cccc2c1C(=O)c1c(O)c3c(c(O)c1C2=O)C[C@@](O)(C(=O)CO)C[C@@H]3O[C@H]1C[C@H](N)[C@H](O)[C@H](C)O1 | inconclusive: 21.3 µM [inhibitor, single point]
28 | O=C(Nc1cccc(Cn2cccn2)c1)c1cc2c(s1)CCCC2 | inconclusive: 5.36 µM [inhibitor, partial curve, poor fit]
29 | O=C(COC(=O)[C@H](Cc1c[nH]c2ccccc12)NC(=O)c1ccc(Cl)cc1)Nc1ccc2c(c1)OCO2 | active: 16.9 µM
30 | Cc1ccc(Nc2cc(C)nc(-n3nc(C)cc3C)n2)cc1 | inactive
31 | CCN1CCN(c2ccc(S(=O)(=O)N3CCCCC3)cc2NC(=O)Cc2c(Cl)cccc2Cl)CC1 | inconclusive: 23.9 µM [inhibitor, single point]
32 | O=C1C(=Cc2cccs2)C(=O)c2ccccc21 | active: 4.78 µM
33 | NCc1ccc(-c2nc3ccccc3o2)cc1 | inconclusive: 19 µM [inhibitor, single point]
34 | CCOC(=O)c1csc(COc2ccccc2Cl)n1 | inconclusive: 26.9 µM [inhibitor, single point]
35 | Cc1ccccc1CSc1nnc(-c2cccnc2)n1N | inactive
36 | CCOc1ccc2nc(SCC(=O)c3ccc(C)s3)sc2c1 | inconclusive: 21.3 µM [inhibitor, partial curve, poor fit]
37 | COc1ccc(S(=O)(=O)N(CC(=O)Nc2ccc(F)c(Cl)c2)c2ccc(C)cc2)cc1OC | inactive
38 | CCC(=O)Nc1ccc(C(=O)c2ccccc2)cc1 | inconclusive: 37.9 µM [inhibitor, partial curve, poor fit]
39 | Cc1nc2c3ccccc3nc(NNC(=O)CCC(=O)N3CCN(c4cccc(Cl)c4)CC3)n2n1 | inconclusive: 21.3 µM [inhibitor, partial curve, poor fit]
40 | CCOC(=O)/C(=N/Nc1ccc(OC)cc1)N1CCCc2ccccc21 | inconclusive: 23.9 µM [inhibitor, partial curve, poor fit]
41 | COc1ccc(OCc2n[nH]c(=S)o2)cc1 | inconclusive: 37.9 µM [inhibitor, partial curve, poor fit]
42 | COc1ccc(C(=O)OCC(=O)c2ccc(Cl)s2)c(OC)c1OC | active: 21.3 µM
43 | Fc1ccc(Nc2c3c(nc4nncn24)CCC3)cc1 | inactive
44 | COc1ccc(C(=O)Nc2nc3ccccc3[nH]2)cc1S(=O)(=O)N1CCCC1 | inconclusive: 23.9 µM [inhibitor, partial curve, poor fit]
45 | Cc1cc(C)n(-c2nnc(Nc3ccc(C(C)C)cc3)c3ccccc23)n1 | inconclusive: 19 µM [inhibitor, partial curve, poor fit]
46 | O=C(Nc1nonc1NC(=O)c1cccs1)c1cccs1 | inconclusive: 37.9 µM [inhibitor, partial curve, poor fit]
47 | CC(C)(C)NC(=S)NC(=O)C12CC3CCC(CC(C3)C1)C2 | inactive
48 | Cc1ccc(-c2csc(NC(=O)/C=C/c3ccco3)c2C(=O)O)cc1 | active: 6.01 µM

Row | Structure (SMILES) | Potency
49 | O=C(/C=C/c1ccc2c(c1)OCO2)Nc1nc(-c2ccc(F)cc2)cs1 | inconclusive: 2.39 µM [inhibitor, full curve, poor fit]
50 | Cc1nc(C(=O)Nc2ccccc2)sc1C1(C)CC(c2cccnc2)=NO1 (stereo not given) | inconclusive: 23.9 µM [inhibitor, partial curve]
51 | COc1ccc(CNCc2ccc3c(c2)n(C)c(=O)n3C)cc1 | inactive
52 | Cc1cccc(/C=N/Nc2cc(N3CCOCC3)nc(N3CCOCC3)n2)c1 | inactive
53 | O=C(CSc1ccccn1)Nc1ccc2c(c1)OCCO2 | active: 8.49 µM
54 | O=c1c2ccccc2nc(/C=C/c2ccc(O)cc2)n1CCc1ccccc1 | inactive
55 | COc1cccc(/C=N/c2oc(-c3ccccc3)cc2C#N)c1O | inconclusive: 13.5 µM [inhibitor, partial curve, poor fit]
56 | Cc1occc1C(=O)NNC(=O)c1ccc(S(=O)(=O)N(C)C)cc1 | inactive
57 | O=C(COCc1cc(-c2cccs2)on1)NCc1ccccc1Cl | inconclusive: 21.3 µM [inhibitor, partial curve, poor fit]
58 | Cc1nc2nc(NC(=O)c3ccc(F)cc3)[nH]n2c(=O)c1Cc1ccccc1 | inconclusive: 13.5 µM [inhibitor, partial curve]
59 | CC(=O)N1CCC(=NNC(=O)c2cc3ccccc3cc2O)CC1 | inconclusive: 26.9 µM [inhibitor, partial curve, poor fit]
60 | Cc1cccn2c(=O)c(/C=C(\C#N)c3nc4ccccc4s3)c(Oc3ccc(Br)cc3)nc12 | inactive
61 | Cc1ccc(Cl)cc1NC(=O)C(NS(=O)(=O)c1cccc2nsnc12)c1ccccc1 (stereo not given) | inconclusive: 13.5 µM [inhibitor, partial curve, poor fit]
62 | Cc1ccc(C)c(N2CCN(c3nccn4nc(-c5ccc(Br)cc5)cc34)CC2)c1 | inactive
63 | Cc1ccc2nc(N/C(=N/S(=O)(=O)c3cccs3)c3ccccc3Cl)sc2c1 | inconclusive: 16.9 µM [inhibitor, partial curve]
64 | Cc1ccc(OCC(=O)NCC2CCCO2)c(C)c1 (stereo not given) | inconclusive: 37.9 µM [inhibitor, single point]
65 | Cc1cc(C(=O)CN2C(=O)NC3(CCCCC3)C2=O)c(C)n1Cc1ccc2c(c1)OCO2 | inconclusive: 21.3 µM [inhibitor, partial curve, poor fit]
66 | CCOC(=O)CCSc1cc(C)c2ccccc2n1 | inactive
67 | CCCNC(=O)c1ccc(N2CCC3(CC2)CC(c2ccccc2)=NO3)c(NC(=O)c2ccco2)c1 | inactive
68 | Cc1ccc(Cl)cc1OCC(=O)NCCOC(=O)Nc1sc(=S)n(C)c1C | inconclusive: 21.3 µM [inhibitor, partial curve]
69 | CCC(=O)N1CCc2cc(S(=O)(=O)NC(C(=O)NCCc3ccc(Cl)cc3)C(C)C)ccc21 (stereo not given) | inactive
70 | C/C(=N\NC(=O)c1ccc(O)cc1)c1ccc2c(c1)Nc1ccccc1S2 | inconclusive: 21.3 µM [inhibitor, single point]
